According to PubChem BioAssay AID1508624 (National Center for Advancing Translational Sciences (NCATS), 2021):
The campaign covered roughly 48,000 compounds. About 120 (0.25%) were called active. Not shown: some 4% with an inconclusive outcome. Calls come from the whole dose curve; as a rule, active = well fitted activation curve with a large enough effect; inconclusive = small, poorly fitted or top-dose-only effect, or another doubt; inactive = no such curve, though single readings can be large or run the other way. The list shows a part of the results.

Experiment: Primary qHTS for Identification of Small Molecule Activators of Huntingtin-Antisense Promoter Activity; note: nearly all actives have a fitted effect of over 55% in size
Conditions: HEK293 HTT-AS promoter firefly luciferase reporter, 24 h; series mostly up to 57.5 µM; activity change, positive = activation: at the top concentration
Procedure, shortened: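 HEK293 Fluc reporter, 2,500 cells/well, 24 h pre-culture; cpds up to 57.5 uM final, 24 h 37 degrees C; Dual-Glo, 10 min RT; normalized vehicle = 0%, zero RLU = -100%.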

Compound	activity change, positive = activation
CCc1ccc(S(=O)(=O)NCCc2csc3nc(-c4ccccc4)nn23)s1	inactive: -31%
COc1ccc(-n2ccn(CC(=O)NCCc3ccccc3)c(=O)c2=O)cc1OC	inactive: 2.05%
O=C(NCCc1csc2nc(-c3ccc(F)cc3)nn12)c1cccc(C(F)(F)F)c1	inactive: -29.2%
COc1cccc(CNC(=O)Cn2ncc3c4ccccc4n(Cc4ccccc4)c3c2=O)c1	inactive: -2.17%
COc1ccccc1CN(Cc1ccco1)c1cnc(S(C)(=O)=O)nc1C(=O)Nc1cc(C)ccc1C	inactive: -17.3%
COc1cccc(C(=O)NCc2nc(-c3ccccc3)no2)c1OC	inactive: 0.0159% [at 11.5 µM, percent change from vehicle, -100% = no light]
O=S(=O)(O)c1ccc(O)cc1	inactive: -0.74%
Cc1ccc(C)c(NC(=O)c2ccc3nc(CCc4ccccc4)oc3c2)c1	inactive: 17.5%
O=C(CSc1n[nH]c(-c2ccccc2Cl)n1)N1CCN(c2ccccc2)CC1	inactive: -9.85%
CCOC(=O)CNS(=O)(=O)c1cc(-c2nnc(Nc3cccc(O)c3)c3ccccc23)ccc1C	inactive: -18.8%
CCCc1ccc(C2Sc3ccccc3NC3=C2C(=O)c2ccccc23)cc1 (stereo unspecified)	inactive: -53.5%
C[C@@H]1CCO[C@H]2Cn3cc(C(=O)NCc4ccc(F)cc4F)c(=O)c(O)c3C(=O)N12	inactive: 21.5%
Cc1cc(NC(=O)c2cccs2)cc(-c2nc3cc(Cl)ccc3o2)c1O	inactive: -1.14%
CCn1cc2nc(SCC(=O)Nc3ccc(C)cc3C)n(Cc3ccc(C)cc3)c(=O)c2n1	inactive: -34.7%
CCC(=O)NCc1cc(-c2nn(C)c(=O)c3ccccc23)ccc1OC	inactive: 0.351%
CC1CCCCN1C(=O)Cn1c(SCC(=O)N(C)c2ccccc2)nc2ccccc21 (stereo unspecified)	inactive: 0.897%
CCn1cc(CNC(=O)c2cc(-c3ccc(C)c(C)c3)nc3ccccc23)c(C)n1	inactive: -17.4%
Cc1ccc(NC(=O)c2ccc(=O)n(CC(=O)Nc3cccc(C)c3)n2)cc1	inactive: -11.7%
O=C(C1CCCCC1)N1CC(=O)N2CCc3ccccc3C2C1 (stereo unspecified)	inactive
CCOc1ccccc1CNS(=O)(=O)c1ccc(-c2coc(C)n2)cc1	inactive: -33.5%
Cc1cccc(C(c2sc3nc(-c4ccco4)nn3c2O)N2CCN(c3ccccc3)CC2)c1 (stereo unspecified)	inactive: -6.89%
COC(=O)c1ccccc1NC(=O)c1cc2nc(-c3ccc(OC)cc3)cc(C(F)(F)F)n2n1	inactive: -11.9%
Cc1ccc(NC(=O)c2ccc(NC(=O)N3CCSc4nc(C)cc(C)c43)cc2)c(Cl)c1	inactive: -25.5%

Compound	activity change, positive = activation
O=C(Cn1nc2c(cc1=O)CCCC2)Nc1ccccc1C(F)(F)F	inactive: -8.1%
O=C(CSc1nc2c(oc3ccccc32)c(=O)n1-c1ccccc1F)Nc1ccccc1	inactive: -22.4%
OC[C@H]1O[C@H](O[C@]2(CCl)O[C@H](CCl)[C@@H](O)[C@@H]2O)[C@H](O)[C@@H](O)[C@H]1Cl	inactive: 2.76%
Cc1ccc(CN2CCSc3ccc(C(=O)N4CCN(c5cc(C)ccc5C)CC4)cc32)cc1	inactive: -25.9%
CCOC(=O)c1c(S(=O)(=O)N2CCCC(C(=O)N3CCN(c4cccc(C)c4C)CC3)C2)c(C)n(C)c1C (stereo unspecified)	inactive: -21.8%
CNC(=O)c1cc(Oc2ccc(NC(=O)Nc3cc(C(C)(C)C)nn3-c3ccc4ncccc4c3)c(F)c2)ccn1	inactive: -25%
CC(C)CN1CCc2nc(N3CCN(C)CC3)ncc2C1	inactive: -5.94%
Cn1c(=O)cc(SCC(=O)N2CCN(c3ccc(F)cc3)CC2)c2ccc(Cl)cc21	inactive: 18.2%
Cc1ccc(Nc2c3c(nc4nncn24)CCC3)cc1C	inactive: -15.3%
O=C(CN1C(=O)COc2ccc(S(=O)(=O)N3CCOCC3)cc21)NCc1ccc(F)cc1	inactive: 3.89%
CCOc1cc(S(=O)(=O)n2ccnc2C(C)C)ccc1Cl	inactive: -10.1%
Cc1ccccc1NC(=O)CCn1cnc2onc(-c3ccc(F)cc3)c2c1=O	inactive: -37.2%
CCC(C)(C)C1CCc2c(sc(NC(=O)C3c4ccccc4Oc4ccccc43)c2C(N)=O)C1 (stereo unspecified)	inactive: -19.6%
O=S(=O)(c1ccccc1)c1nc(-c2cccs2)oc1SCc1ccccc1F	inactive: -2.96%
Cc1ccc(C)c(N2CCN(CCCNC(=O)Cn3ncc4c5ccccc5n(C)c4c3=O)CC2)c1	inactive: -25.7%
CCCCC(CC)CNC(=O)C1CCN(S(=O)(=O)c2cccc3nsnc23)CC1 (stereo unspecified)	inactive: -18%
O=C(O)[C@@H](O)[C@H](O)[C@H](O)[C@@H](O)C(=O)O	inactive: -7.04%
Cc1ccc(NS(=O)(=O)c2c(C(=O)N3CCC(C)CC3)c(C)n(C)c2C)cc1Cl	inactive: -23.3%
N#Cc1nc(-c2ccc(COc3ccc(Cl)cc3)o2)oc1N1CCN(c2ccccc2)CC1	inactive: -15.4%
CCOc1ccc(NC(=O)CCn2cnc3onc(-c4ccc(F)cc4)c3c2=O)cc1	inactive: -14%
Cc1cccc(C)c1NC(=O)Cn1c(=O)n(CC2CCC(C(=O)NCCc3ccccc3)CC2)c(=O)c2ccccc21 (stereo unspecified)	inactive: -9.95%
CCOC(=O)c1noc2ncnc(Nc3ccc(F)cc3F)c12	inactive: -5.17%
CCOC(=O)C1CCN(C(=O)C2CCN(C3=NS(=O)(=O)C(c4ccc(C)cc4)=C3CC)CC2)CC1	inactive: -25.6%
